# The list shows a part of the results.
# B1: TbCVNHOb (Tuber borchii) (protein)
# chain: GSHIGPYMSFYASSEDVRTIEEGGRTWLVGRARRADGSWQDIKLDLDNIIGNRDGHLTWGEQNFTQSASDIRFNFEGGSNVPVLRAKLRNAAGGEQESDLNLGERLTNNNGDLVFN
# Key:
# Assay in all cases: glycan array binding signal (z-score within array); higher = stronger binding
# Conditions in all cases: glycan notation: IUPAC condensed, linker removed
# Gal(a1-4)GlcNAc = target: Gal(a1-4)GlcNAc
# Method in brief: (§1)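 Glycan array binding is given as a within-array Z-score, which can be read as non-binding when negative. The arrays, 3228 of them, came from the Consortium for Functional Glycomics database and were retained only where the protein sequence was available. Z-scores were averaged across arrays of the same protein sequence at different concentrations or buffers and across linkers.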
# Gal(a1-6)Glc = target: Gal(a1-6)Glc
# Method in brief: as §1
# Gal(b1-2)Gal = target: Gal(b1-2)Gal
# Method in brief: as §1
# Gal(b1-3)Gal = target: Gal(b1-3)Gal
# Method in brief: as §1
# Gal(b1-3)GalNAc = target: Gal(b1-3)GalNAc
# Method in brief: as §1
# [1] = target: Gal(b1-3)GalNAc(b1-3)Gal(a1-4)Gal(b1-4)Glc
# Method in brief: as §1
# [2] = target: Gal(b1-3)GalNAc(b1-3)Gal(b1-4)Glc
# Method in brief: as §1
# [3] = target: Gal(b1-3)GalNAc(b1-3)Gal(b1-4)GlcNAc
# Method in brief: as §1
# [4] = target: Gal(b1-3)GalNAc(b1-4)Gal(b1-4)Glc
# Method in brief: as §1
# [5] = target: Gal(b1-3)GalNAc(b1-4)[Neu5Ac(a2-3)]Gal(b1-4)Glc
# Method in brief: as §1
# [6] = target: Gal(b1-3)[Fuc(a1-4)]GlcNAc
# Method in brief: as §1
# [7] = target: Gal(b1-3)[Fuc(a1-4)]GlcNAc(b1-3)Gal(b1-4)GlcNAc
# Method in brief: as §1
# [8] = target: Gal(b1-3)[Fuc(a1-4)]GlcNAc(b1-3)Gal(b1-4)[Fuc(a1-3)]GlcNAc
# Method in brief: as §1
# [9] = target: Gal(b1-3)[GlcNAc(b1-6)]GalNAc
# Method in brief: as §1
# [10] = target: Gal(b1-3)[GlcNAc(b1-6)]GlcNAc
# Method in brief: as §1
# [11] = target: Gal(b1-3)[Neu5Ac(a2-6)]GalNAc
# Method in brief: as §1
# [12] = target: Gal(b1-3)[Neu5Ac(a2-6)]GlcNAc
# Method in brief: as §1
# [13] = target: Gal(b1-3)[Neu5Ac(a2-6)]GlcNAc(a1-4)Gal(b1-4)Glc
# Method in brief: as §1
# [14] = target: Gal(b1-3)[Neu5Ac(b2-6)]GlcNAc
# Method in brief: as §1
# [15] = target: Gal(b1-4)GalNAc(a1-3)[Fuc(a1-2)]Gal(b1-4)GlcNAc
# Method in brief: as §1
# [16] = target: Gal(b1-4)GalNAc(b1-3)[Fuc(a1-2)]Gal(b1-4)GlcNAc
# Method in brief: as §1
# Gal(b1-4)Glc = target: Gal(b1-4)Glc
# Method in brief: as §1
# Gal(b1-4)Glc6S = target: Gal(b1-4)Glc6S
# Method in brief: as §1
# Gal(b1-4)GlcNAc = target: Gal(b1-4)GlcNAc
# Method in brief: as §1
# [17] = target: Gal(b1-4)GlcNAc(b1-2)Man(a1-3)[Gal(b1-4)GlcNAc(b1-2)Man(a1-6)]Man(b1-4)GlcNAc(b1-4)GlcNAc
# Method in brief: as §1
# [18] = target: Gal(b1-4)GlcNAc(b1-3)Gal(b1-4)Glc
# Method in brief: as §1
# [19] = target: Gal(b1-4)GlcNAc(b1-3)Gal(b1-4)GlcNAc
# Method in brief: as §1
# [20] = target: Gal(b1-4)GlcNAc(b1-3)Gal(b1-4)GlcNAc(b1-3)Gal(b1-4)GlcNAc
# Method in brief: as §1
# [21] = target: Gal(b1-4)GlcNAc(b1-3)Gal(b1-4)[Fuc(a1-3)]GlcNAc(b1-3)Gal(b1-4)[Fuc(a1-3)]GlcNAc
# Method in brief: as §1
# [22] = target: Gal(b1-4)GlcNAc(b1-3)GalNAc
# Method in brief: as §1
# [23] = target: Gal(b1-4)GlcNAc(b1-3)[Gal(b1-4)GlcNAc(b1-6)]GalNAc
# Method in brief: as §1
# [24] = target: Gal(b1-4)GlcNAc(b1-6)GalNAc
# Method in brief: as §1
# [25] = target: Gal(b1-4)GlcNAc(b1-6)[Gal(b1-3)]GalNAc
# Method in brief: as §1
# [26] = target: Gal(b1-4)GlcNAc(b1-6)[Gal(b1-3)]GlcNAc
# Method in brief: as §1
# Gal3S(b1-3)GalNAc = target: Gal3S(b1-3)GalNAc
# Method in brief: as §1
# Gal3S(b1-3)GlcNAc = target: Gal3S(b1-3)GlcNAc
# Method in brief: as §1
# [27] = target: Gal3S(b1-3)[Fuc(a1-4)]GlcNAc
# Method in brief: as §1
# Gal3S(b1-4)Glc = target: Gal3S(b1-4)Glc
# Method in brief: as §1
# Gal3S(b1-4)Glc6S = target: Gal3S(b1-4)Glc6S
# Method in brief: as §1
# Gal3S(b1-4)GlcNAc = target: Gal3S(b1-4)GlcNAc
# Method in brief: as §1
# Gal3S(b1-4)GlcNAc6S = target: Gal3S(b1-4)GlcNAc6S
# Method in brief: as §1
# Gal3S6S(b1-4)GlcNAc = target: Gal3S6S(b1-4)GlcNAc
# Method in brief: as §1
# Gal3S6S(b1-4)GlcNAc6S = target: Gal3S6S(b1-4)GlcNAc6S
# Method in brief: as §1
# Gal4S(b1-4)GlcNAc = target: Gal4S(b1-4)GlcNAc
# Method in brief: as §1
# Gal4S6S(b1-4)GlcNAc = target: Gal4S6S(b1-4)GlcNAc
# Method in brief: as §1
binder,measurement,setting,value
B1,glycan array binding signal (z-score),Gal(a1-4)GlcNAc,-0.472
same,glycan array binding signal (z-score),Gal(a1-6)Glc,0.38
same,glycan array binding signal (z-score),Gal(b1-2)Gal,-0.193
same,glycan array binding signal (z-score),Gal(b1-3)Gal,-0.139
same,glycan array binding signal (z-score),Gal(b1-3)GalNAc,-0.28
same,glycan array binding signal (z-score),[1],0.331
same,glycan array binding signal (z-score),[2],4.02
same,glycan array binding signal (z-score),[3],-0.539
same,glycan array binding signal (z-score),[4],-0.387
same,glycan array binding signal (z-score),[5],-0.12
same,glycan array binding signal (z-score),[6],-0.004
same,glycan array binding signal (z-score),[7],-0.231
same,glycan array binding signal (z-score),[8],-0.015
same,glycan array binding signal (z-score),[9],-0.315
same,glycan array binding signal (z-score),[10],-0.554
same,glycan array binding signal (z-score),[11],-0.305
same,glycan array binding signal (z-score),[12],-0.484
same,glycan array binding signal (z-score),[13],4.83
same,glycan array binding signal (z-score),[14],-0.311
same,glycan array binding signal (z-score),[15],1.04
same,glycan array binding signal (z-score),[16],-0.367
same,glycan array binding signal (z-score),Gal(b1-4)Glc,-0.259
same,glycan array binding signal (z-score),Gal(b1-4)Glc6S,0.011
same,glycan array binding signal (z-score),Gal(b1-4)GlcNAc,-0.364
same,glycan array binding signal (z-score),[17],-0.4
same,glycan array binding signal (z-score),[18],2.59
same,glycan array binding signal (z-score),[19],-0.126
same,glycan array binding signal (z-score),[20],0.516
same,glycan array binding signal (z-score),[21],-0.334
same,glycan array binding signal (z-score),[22],-0.383
same,glycan array binding signal (z-score),[23],-0.294
same,glycan array binding signal (z-score),[24],-0.561
same,glycan array binding signal (z-score),[25],-0.316
same,glycan array binding signal (z-score),[26],-0.568
same,glycan array binding signal (z-score),Gal3S(b1-3)GalNAc,-0.531
same,glycan array binding signal (z-score),Gal3S(b1-3)GlcNAc,-0.28
same,glycan array binding signal (z-score),[27],-0.55
same,glycan array binding signal (z-score),Gal3S(b1-4)Glc,-0.289
same,glycan array binding signal (z-score),Gal3S(b1-4)Glc6S,-0.244
same,glycan array binding signal (z-score),Gal3S(b1-4)GlcNAc,-0.056
same,glycan array binding signal (z-score),Gal3S(b1-4)GlcNAc6S,-0.44
same,glycan array binding signal (z-score),Gal3S6S(b1-4)GlcNAc,-0.516
same,glycan array binding signal (z-score),Gal3S6S(b1-4)GlcNAc6S,-0.486
same,glycan array binding signal (z-score),Gal4S(b1-4)GlcNAc,-0.362
same,glycan array binding signal (z-score),Gal4S6S(b1-4)GlcNAc,0.433

# Source: the supplement of paper PMC8728848
